# Assay results as given in the supplement of paper PMC10724272.
# Legend:
# Test in all cases: CLSI broth microdilution.
# caspofungin = compound: CC[C@H](C)C[C@H](C)CCCCCCCCC(=O)N[C@H]1C[C@@H](O)[C@@H](NCCN)NC(=O)[C@@H]2[C@@H](O)CCN2C(=O)[C@H]([C@H](O)CCN)NC(=O)[C@H]([C@H](O)[C@@H](O)c2ccc(O)cc2)NC(=O)[C@@H]2C[C@@H](O)CN2C(=O)[C@H]([C@@H](C)O)NC1=O [caspofungin]
# posaconazole = compound: CC[C@@H]([C@H](C)O)n1ncn(-c2ccc(N3CCN(c4ccc(OC[C@@H]5CO[C@@](Cn6cncn6)(c6ccc(F)cc6F)C5)cc4)CC3)cc2)c1=O [posaconazole]
# anidulafungin = compound: CCCCCOc1ccc(-c2ccc(-c3ccc(C(=O)N[C@H]4C[C@@H](O)[C@@H](O)NC(=O)[C@@H]5[C@@H](O)[C@@H](C)CN5C(=O)[C@H]([C@@H](C)O)NC(=O)[C@H]([C@H](O)[C@@H](O)c5ccc(O)cc5)NC(=O)[C@@H]5C[C@@H](O)CN5C(=O)[C@H]([C@@H](C)O)NC4=O)cc3)cc2)cc1 [anidulafungin]
# micafungin = compound: CCCCCOc1ccc(-c2cc(-c3ccc(C(=O)N[C@H]4C[C@@H](O)[C@@H](O)NC(=O)[C@@H]5[C@@H](O)[C@@H](C)CN5C(=O)[C@H]([C@H](O)CC(N)=O)NC(=O)[C@H]([C@H](O)[C@@H](O)c5ccc(O)c(OS(=O)(=O)O)c5)NC(=O)[C@@H]5C[C@@H](O)CN5C(=O)[C@H]([C@@H](C)O)NC4=O)cc3)no2)cc1 [micafungin]
# voriconazole = compound: C[C@@H](c1ncncc1F)[C@](O)(Cn1cncn1)c1ccc(F)cc1F [voriconazole]
# flucytosine = compound: Nc1[nH]c(=O)ncc1F [flucytosine]
# itraconazole = compound: CCC(C)n1ncn(-c2ccc(N3CCN(c4ccc(OCC5COC(Cn6cncn6)(c6ccc(Cl)cc6Cl)O5)cc4)CC3)cc2)c1=O [itraconazole]
# amphotericin B = compound: C[C@@H]1[C@H](O)[C@@H](C)/C=C/C=C/C=C/C=C/C=C/C=C/C=C/[C@H](O[C@@H]2O[C@H](C)[C@@H](O)[C@H](N)[C@@H]2O)C[C@@H]2O[C@](O)(C[C@@H](O)C[C@@H](O)[C@H](O)CC[C@@H](O)C[C@@H](O)CC(=O)O[C@H]1C)C[C@H](O)[C@H]2C(=O)O [amphotericin B]
# fluconazole = compound: OC(Cn1cncn1)(Cn1cncn1)c1ccc(F)cc1F [fluconazole]
Test System,MIC (caspofungin),MIC (posaconazole),MIC (anidulafungin),MIC (micafungin),MIC (voriconazole),MIC (flucytosine),MIC (itraconazole),MIC (amphotericin B),MIC (fluconazole)
"Candida tropicalis isolate 15 (ERG11 copies: 2, Erg11p: no key change)",0.06 mg/L [S],0.12 mg/L [S],0.12 mg/L [S],0.03 mg/L [S],0.12 mg/L [S],0.12 mg/L [S],0.12 mg/L [S],0.5 mg/L [S],2 mg/L [S]
"Candida tropicalis isolate 184 (ERG11 copies: 2, Erg11p: no key change)",0.03 mg/L [S],0.12 mg/L [S],≤ 0.015 mg/L [S],0.015 mg/L [S],0.06 mg/L [S],≤ 0.06 mg/L [S],0.25 mg/L [S],1 mg/L [S],1 mg/L [S]
"Candida tropicalis isolate 281 (ERG11 copies: 2, Erg11p: no key change)",0.06 mg/L [S],0.25 mg/L [S],0.12 mg/L [S],0.03 mg/L [S],0.12 mg/L [S],≤ 0.06 mg/L [S],0.25 mg/L [S],1 mg/L [S],1 mg/L [S]
"Candida tropicalis isolate 213 (ERG11 copies: 2, Erg11p: no key change)",0.03 mg/L [S],0.12 mg/L [S],0.03 mg/L [S],0.015 mg/L [S],0.06 mg/L [S],≤ 0.06 mg/L [S],0.12 mg/L [S],1 mg/L [S],1 mg/L [S]
"Candida tropicalis isolate 399 (ERG11 copies: 2, Erg11p: no key change)",0.03 mg/L [S],≥ 8 mg/L [R],0.03 mg/L [S],0.03 mg/L [S],≥ 8 mg/L [R],≤ 0.06 mg/L [S],≥ 16 mg/L [R],1 mg/L [S],256 mg/L [R]
"Candida tropicalis isolate 173 (ERG11 copies: 2, Erg11p: no key change)",0.03 mg/L [S],0.25 mg/L [S],0.03 mg/L [S],0.03 mg/L [S],0.12 mg/L [S],0.12 mg/L [S],0.12 mg/L [S],1 mg/L [S],1 mg/L [S]
"Candida tropicalis isolate 104 (ERG11 copies: 2, Erg11p: no key change)",0.03 mg/L [S],0.03 mg/L [S],0.03 mg/L [S],0.03 mg/L [S],0.03 mg/L [S],≤ 0.06 mg/L [S],0.03 mg/L [S],0.5 mg/L [S],0.5 mg/L [S]
"Candida tropicalis isolate 380 (ERG11 copies: 7, Erg11p: Y132F, S154F (heterozygous))",0.03 mg/L [S],1 mg/L [R],0.03 mg/L [S],0.03 mg/L [S],≥ 8 mg/L [R],≤ 0.06 mg/L [S],1 mg/L [R],1 mg/L [S],512 mg/L [R]
"Candida tropicalis isolate 105 (ERG11 copies: 2, Erg11p: no key change)",0.03 mg/L [S],0.25 mg/L [S],0.12 mg/L [S],0.03 mg/L [S],0.25 µg/mL,≤ 0.06 mg/L [S],0.25 mg/L [S],1 mg/L [S],2 mg/L [S]
"Candida tropicalis isolate 4 (ERG11 copies: 2, Erg11p: no key change)",0.03 mg/L [S],0.12 mg/L [S],0.06 mg/L [S],0.03 mg/L [S],0.12 mg/L [S],≤ 0.06 mg/L [S],0.12 mg/L [S],1 mg/L [S],2 mg/L [S]
"Candida tropicalis isolate 30 (ERG11 copies: 2, Erg11p: no key change)",0.015 mg/L [S],0.06 mg/L [S],≤ 0.015 mg/L [S],0.03 mg/L [S],0.06 mg/L [S],≤ 0.06 mg/L [S],0.06 mg/L [S],1 mg/L [S],1 mg/L [S]
"Candida tropicalis isolate 350 (ERG11 copies: 2, Erg11p: no key change)",0.03 mg/L [S],0.12 mg/L [S],0.06 mg/L [S],0.03 mg/L [S],0.03 mg/L [S],≤ 0.06 mg/L [S],0.12 mg/L [S],0.5 mg/L [S],0.5 mg/L [S]
"Candida tropicalis isolate 310 (ERG11 copies: 2, Erg11p: no key change)",0.25 mg/L [S],0.25 mg/L [S],0.12 mg/L [S],0.03 mg/L [S],0.12 mg/L [S],≤ 0.06 mg/L [S],0.25 mg/L [S],0.5 mg/L [S],2 mg/L [S]
"Candida tropicalis isolate 344 (ERG11 copies: 2, Erg11p: no key change)",0.06 mg/L [S],0.12 mg/L [S],0.25 mg/L [S],0.03 mg/L [S],0.12 mg/L [S],≤ 0.06 mg/L [S],0.12 mg/L [S],0.5 mg/L [S],2 mg/L [S]
"Candida tropicalis isolate 286 (ERG11 copies: 2, Erg11p: no key change)",0.03 mg/L [S],0.12 mg/L [S],0.03 mg/L [S],0.03 mg/L [S],0.06 mg/L [S],≤ 0.06 mg/L [S],0.25 mg/L [S],1 mg/L [S],2 mg/L [S]
"Candida tropicalis isolate 414 (ERG11 copies: 2, Erg11p: no key change)",0.03 mg/L [S],0.12 mg/L [S],≤ 0.015 mg/L [S],0.03 mg/L [S],0.03 mg/L [S],≤ 0.06 mg/L [S],0.25 mg/L [S],1 mg/L [S],1 mg/L [S]
"Candida tropicalis isolate 55 (ERG11 copies: 2, Erg11p: Y132F, S154F (heterozygous))",0.03 mg/L [S],0.12 mg/L [S],≤ 0.015 mg/L [S],0.015 mg/L [S],0.5 µg/mL,≤ 0.06 mg/L [S],0.25 mg/L [S],1 mg/L [S],16 mg/L [R]
"Candida tropicalis isolate 236 (ERG11 copies: 2, Erg11p: no key change)",0.03 mg/L [S],0.12 mg/L [S],0.06 mg/L [S],0.03 mg/L [S],0.12 mg/L [S],≤ 0.06 mg/L [S],0.25 mg/L [S],1 mg/L [S],2 mg/L [S]

# MIC of invasive clinical C. tropicalis isolates, CLSI broth microdilution (fluconazole 0.12-256 mg/L, up to 1,024 for the azole-resistant cluster and its neighbour group; other ranges not stated); higher = less susceptible. Call: susceptible or wild type [S] / resistant or non-wild type [R] by CLSI breakpoints or cut-offs; intermediate and dose-dependent carry no call. '<=' and '>=' at the end values are inferred; the source marks only some of them. Isolates are numbered anew.
